{
  "source": "PubChem BioAssay AID1345083",
  "about": "(National Center for Advancing Translational Sciences (NCATS), 2018)",
  "note": "About 6,200 (6.6%) of roughly 94,000 compounds were called active. This list was built around the results that the source calls inconclusive (neither active nor inactive); the mix of calls is not that of the screen. The call rests on the fitted dose curve; in most records, active means well fitted inhibition curve with a large enough effect; inconclusive means small, poorly fitted or top-dose-only effect; inactive means flat fitted curve, though single readings scatter. Where the call is inconclusive, the potency comes from a doubtful curve fit. On the % scale 0 is the no-effect control and ±100 the full control effect; potency means the concentration at half of the fitted maximal effect; tags describe the fitted curve by direction and shape.",
  "data": [
    {"experiment": "Cytotoxic Profiling in HEK 293 Cell Line of Diverse Libraries Using Quantitative High-Throughput Screening; further: nearly all actives have a fitted effect of over 60% in size", "settings": "HEK 293 viability, ATP luminescence (CellTiter-Glo), 48-72 h; activity change, negative = cytotoxicity: at 115 µM (top of the series) unless noted; series mostly up to 115 µM", "method_in_brief": "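HEK 293 cells at 250 cells/well were exposed to compounds by pintool transfer for 48 or 72 hr at 37 degree Celsius, 5% CO2. Viability was read as ATP-coupled luminescence with CellTiter-Glo after 10 min at room temperature.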", "values": [
      {"compound": "Cc1ccc(OCC(=O)c2ccc3c(c2)N(CCCC(=O)NCC2CC2)C(=O)CO3)cc1C", "Potency": "inconclusive: 89.1 µM [inhibitor, single point]"},
      {"compound": "CCOCCNC(=O)[C@@H]1CCCN1c1nccc(Nc2ccccc2Cl)n1", "Potency": "inconclusive: 79.4 µM [inhibitor, partial curve, poor fit]"},
      {"compound": "COc1ccc(OCC2(C)COc3ccc(C(=O)NCc4cccc(F)c4)cc3N2)cc1", "note": "(stereo not drawn)", "Potency": "inconclusive: 50.1 µM [inhibitor, full curve]"},
      {"compound": "Cn1cc(Nc2ccc(Cl)cc2)c2nc(CN3CC[S+](=O)([O-])CC3)cn2c1=O", "Potency": "inconclusive: 100 µM [inhibitor, partial curve]"},
      {"compound": "COc1ccccc1N1CCCc2ncc(C(=O)NCc3cccc(Cl)c3)cc21", "Potency": "inconclusive: 100 µM [inhibitor, partial curve, poor fit]"},
      {"compound": "CCn1c(CC2CCN(S(=O)(=O)c3cccc(C)c3)CC2)nn(C)c1=O", "activity change, negative = cytotoxicity": "inactive: -18.9%"},
      {"compound": "O=C(NCCc1ccccc1)N1CCC(c2noc(COc3ccc(F)cc3)n2)C1", "note": "(stereo not drawn)", "Potency": "active: 44.7 µM"},
      {"compound": "O=C(NC1CCN(c2cc(-c3ccc(Cl)cc3)[nH]n2)CC1)c1ccccn1", "Potency": "inconclusive: 50.1 µM [inhibitor, partial curve, poor fit]"},
      {"compound": "CC(C)(O)CCc1ccc(C(=O)N2CCOc3ccc(Cl)cc3C2)cc1", "Potency": "inconclusive: 50.1 µM [inhibitor, partial curve, poor fit]"},
      {"compound": "COc1ccc(Cn2c(-c3ccccc3)nc(C)c(CCO)c2=O)cc1F", "Potency": "inconclusive: 89.1 µM [inhibitor, single point]"},
      {"compound": "CCOc1cccc(CNC(=O)c2ccc(Cn3ccn4nc5c(c4c3=O)CCCC5)cc2)c1", "Potency": "inconclusive: 31.6 µM [inhibitor, full curve]"},
      {"compound": "COC(=O)[C@@H]1Cc2nc[nH]c2CN1Cc1ccc([N+](=O)[O-])cc1", "Potency": "inconclusive: 126 µM [inhibitor, single point]"},
      {"compound": "O=[N+]([O-])c1cccc(-c2noc([C@@H]3Cc4nc[nH]c4CN3Cc3ccc(F)cc3)n2)c1", "Potency": "active: 50.1 µM"},
      {"compound": "O=C(c1ccc(Cl)cc1)N1CCCC2(C1)NC(=O)N(Cc1ccc(Cl)cc1)C2=O", "note": "(stereo not drawn)", "Potency": "inconclusive: 50.1 µM [inhibitor, partial curve, poor fit]"},
      {"compound": "COc1ccc(-c2cc(C(=O)NC3CCOCC3)c3cnn(C)c3n2)cc1", "Potency": "inconclusive: 79.4 µM [inhibitor, partial curve, poor fit]"},
      {"compound": "COc1ccc(-c2cccc(C(=O)N3CCN(C(=O)c4ccccc4OC)CC3)c2)nn1", "activity change, negative = cytotoxicity": "inactive: 2.34%"},
      {"compound": "C=CCOC(=O)Nc1nc2c(s1)C[C@@H]1[C@](C)(CO)[C@H](O)CC[C@@]1(C)[C@@H]2CC(=O)NC1CCCCC1", "Potency": "inconclusive: 6.31 µM [inhibitor, full curve, poor fit]"},
      {"compound": "Cc1ccc(C(=O)N2CCC3(CC2)NC(=O)N(c2ccc(F)cc2)N3)cc1", "Potency": "inconclusive: 17.8 µM [inhibitor, full curve]"},
      {"compound": "COc1ccc(-c2cc(C[C@@H]3CC[C@H](O)[C@@H](CNC(=O)Nc4ccccc4)O3)no2)cc1", "Potency": "inconclusive: 89.1 µM [inhibitor, single point]"},
      {"compound": "O=C(c1ccoc1)N1CCC[C@H](n2c(=O)n(Cc3ccccc3)c3cccnc32)C1", "Potency": "inconclusive: 50.1 µM [inhibitor, partial curve, poor fit]"},
      {"compound": "O=C(NCCc1ccccc1)c1ccc2oc(-c3cccnc3)nc2c1", "activity change, negative = cytotoxicity": "inactive: -15.5%"},
      {"compound": "O=C(CCC(=O)n1ncc2c(Cl)cccc21)N1CCC(Cc2nc(C3CCOCC3)no2)CC1", "Potency": "inconclusive: 79.4 µM [inhibitor, partial curve, poor fit]"},
      {"compound": "OCc1ccc(CN2CCC[C@H]2c2nc(-c3ccc(N4CCOCC4)nc3)no2)o1", "Potency": "inconclusive: 126 µM [inhibitor, single point]"},
      {"compound": "CCN1c2cc(C(=O)Nc3ccc(C(F)(F)F)cc3)ccc2C(=O)N2CCCCC21", "note": "(stereo not drawn)", "Potency": "inconclusive: 89.1 µM [inhibitor, single point]"},
      {"compound": "Cc1ccccc1CN1CCCC2(Cc3ccccc3CNC2=O)C1", "note": "(stereo not drawn)", "activity change, negative = cytotoxicity": "inactive: -11.9%"},
      {"compound": "COc1ccc(-c2cccc(CN3CCCC(C)(NC(C)=O)C3)c2)cc1OC", "note": "(stereo not drawn)", "Potency": "inconclusive: 100 µM [inhibitor, partial curve]"},
      {"compound": "CC(=O)Nc1ccc(CN2CCc3nc(C4CC4)nc(-c4ccc(O)cc4)c3CC2)cc1", "Potency": "inconclusive: 56.2 µM [inhibitor, partial curve, poor fit]"},
      {"compound": "NS(=O)(=O)c1ccc(CCNC(=O)c2cc(-c3ccc[nH]3)n[nH]2)cc1", "activity change, negative = cytotoxicity": "inactive: 0.343%"},
      {"compound": "O=C(NC1CCNCC1)C1CCN(c2nc(-c3ccccc3)nc3c2CCC3)CC1", "Potency": "inconclusive: 89.1 µM [inhibitor, single point]"},
      {"compound": "Cc1ccc(-c2nnc(C3CN(C(=O)c4ccc(F)c(F)c4)CC34CCOCC4)o2)cc1", "note": "(stereo not drawn)", "Potency": "inconclusive: 31.6 µM [inhibitor, full curve]"},
      {"compound": "COc1cccc(-c2cccc(C(=O)N3CCN([S+](=O)([O-])c4c(C)noc4C)CC3)c2)c1", "Potency": "inconclusive: 89.1 µM [inhibitor, single point]"},
      {"compound": "COCCNC(=O)C1(C)CN(C)Cc2ccc(Nc3cccc(OC)c3)nc21", "note": "(stereo not drawn)", "Potency": "inconclusive: 112 µM [inhibitor, partial curve, poor fit]"},
      {"compound": "COC[C@@H]1CN(C(=O)c2cc(C)oc2C)C[C@H]1c1nc(C)no1", "Potency": "inconclusive: 89.1 µM [inhibitor, partial curve, poor fit]"},
      {"compound": "COCC(=O)Nc1c(C(=O)OC)n(CCCc2ccccc2)c2ncc(NC(C)CCO)cc12", "note": "(stereo not drawn)", "Potency": "inconclusive: 89.1 µM [inhibitor, single point]"},
      {"compound": "CCn1ccnc1CN(C)Cc1cccc(OCC(O)CN(C)C2CCCCC2)c1", "note": "(stereo not drawn)", "Potency": "inconclusive: 89.1 µM [inhibitor, single point]"},
      {"compound": "COCC(=O)NC[C@@H]1C=C(C)[C@H](Cc2nc3ccccc3n2C)C[C@H]1C(C)C", "Potency": "active: 56.2 µM"},
      {"compound": "Cc1ccc(CN2CCC3(CC2)CCN(C(=O)C2CCC2)CC3CO)s1", "note": "(stereo not drawn)", "Potency": "inconclusive: 39.8 µM [inhibitor, full curve]"},
      {"compound": "Cn1cc(C(=O)NCC2CN(CCCc3ccccc3)CC23CN(c2ccccc2)C3)cn1", "note": "(stereo not drawn)", "Potency": "inconclusive: 56.2 µM [inhibitor, partial curve, poor fit]"},
      {"compound": "O=C(NCC1CCCN(Cc2cccc(-c3ccco3)c2)C1)c1cccs1", "note": "(stereo not drawn)", "activity change, negative = cytotoxicity": "inactive: -16.2%"},
      {"compound": "O=C(C1CN(C2CCCC2)C(=O)N1)N1CCN(Cc2ccccc2)CC1", "note": "(stereo not drawn)", "activity change, negative = cytotoxicity": "inactive: -8.67% [at 172 µM]"},
      {"compound": "Cc1cccc(N2CCN(C(=O)c3ccc4c(c3)C(O)CCCCCN4C)CC2)c1", "note": "(stereo not drawn)", "Potency": "inconclusive: 44.7 µM [inhibitor, partial curve, poor fit]"},
      {"compound": "COc1ccc(-c2onc(C)c2C(=O)N[C@@H](C)c2ccc(OC)cc2)cc1", "Potency": "inconclusive: 50.1 µM [inhibitor, partial curve, poor fit]"},
      {"compound": "Cn1cnc(S(=O)(=O)N2C[C@@H](C(=O)O)[C@H](c3ccccn3)C2)c1", "outcome": "inactive"},
      {"compound": "COCCOC1CCOC2(CCN(C(=O)COc3ccc(F)cc3)CC2)C1", "note": "(stereo not drawn)", "activity change, negative = cytotoxicity": "inactive: -19.8%"},
      {"compound": "Cc1cccc(C(=O)N2CC(N(Cc3ccncc3)CC3CC3)C2)c1", "activity change, negative = cytotoxicity": "inactive: -27.1%"},
      {"compound": "COc1cccc(-c2cc(C3CCN(C(=O)Nc4ccc(C)cc4C)CC3)[nH]n2)c1", "Potency": "active: 44.7 µM"},
      {"compound": "Cc1cc(C)cc(C(=O)N2CCCC3(C2)NC(=O)N(Cc2ccc(Cl)cc2)C3=O)c1", "note": "(stereo not drawn)", "Potency": "inconclusive: 89.1 µM [inhibitor, single point]"},
      {"compound": "O=C(Cc1ccc(N(Cc2ccccc2)C(=O)c2ccco2)cc1)NCc1ccco1", "Potency": "inconclusive: 79.4 µM [inhibitor, partial curve, poor fit]"},
      {"compound": "CN(Cc1nccn1C)C(=O)c1cc(CN2CCC(Cc3ccccc3)CC2)on1", "activity change, negative = cytotoxicity": "inactive: -28.8%"},
      {"compound": "CNC(=O)c1ccc2c(c1)NC(C)(CCCCc1ccccc1)CO2", "note": "(stereo not drawn)", "Potency": "inconclusive: 56.2 µM [inhibitor, partial curve, poor fit]"},
      {"compound": "Cc1ccc(NC(=O)Cn2c(N3CCN(c4ccccc4)CC3)nc(C)cc2=O)cc1", "Potency": "inconclusive: 15.8 µM [inhibitor, full curve, poor fit]"},
      {"compound": "COc1nccc(N2CCC(CC(=O)N3CCCN(c4ncccn4)CC3)CC2)n1", "Potency": "inconclusive: 15.8 µM [inhibitor, full curve]"},
      {"compound": "CCCC1c2nccn2CCCN1C(=O)c1cnco1", "note": "(stereo not drawn)", "activity change, negative = cytotoxicity": "inactive: -8.92%"},
      {"compound": "CN(Cc1nnc(C(=O)N2CCC[C@@H]2c2cccc(F)c2)n1-c1ccccc1)c1ccccc1", "Potency": "inconclusive: 79.4 µM [inhibitor, partial curve]"},
      {"compound": "COCCNC(=O)[C@@H]1C[C@H](Oc2ccccc2)CN1C(=O)c1ccccn1", "activity change, negative = cytotoxicity": "inactive: -0.692%"},
      {"compound": "COc1ccc(CN2CCc3ncc(C(=O)Nc4ccccc4C)n3CC2)cn1", "outcome": "inactive [at 172 µM]"},
      {"compound": "O=C(c1ccccc1F)N1CC(Oc2ccc(-c3nc(-c4ccccc4)no3)cc2)C1", "Potency": "active: 28.2 µM"},
      {"compound": "O=C(NCC1Cn2cccc2CN1Cc1ccccc1)C1CC1", "note": "(stereo not drawn)", "Potency": "inconclusive: 79.4 µM [inhibitor, partial curve]"},
      {"compound": "O=C(O)c1ccc(CN2CCOC[C@H]2c2ncc(-c3ccc(F)cc3)[nH]2)cc1", "activity change, negative = cytotoxicity": "inactive: -8.56% [at 172 µM]"},
      {"compound": "Cc1ccc(S(=O)(=O)N2CCCC(Cn3c(C)nc4cccnc43)C2)c(C)c1", "note": "(stereo not drawn)", "Potency": "inconclusive: 8.91 µM [inhibitor, full curve, poor fit]"},
      {"compound": "CN(CC(O)c1ccccc1)C(=O)c1cn(C(c2ccccc2)c2ccccc2)nn1", "note": "(stereo not drawn)", "activity change, negative = cytotoxicity": "inactive: -1.59%"},
      {"compound": "Cc1noc(C)c1[S+](=O)([O-])N1CCCC2(CC(c3cccnc3)=NO2)C1", "note": "(stereo not drawn)", "outcome": "inactive"},
      {"compound": "CCC(=O)N1CCN(c2nc3c(s2)CC(C(=O)NCC(C)C)CC3)CC1", "note": "(stereo not drawn)", "Potency": "inconclusive: 79.4 µM [inhibitor, single point]"}
    ]}
  ]
}
